# The list shows a part of the results.
# B1: PV12658A-bvu-496-32-496 (Bacteroides vulgatus) (protein)
# chain: DLDGAITTPAAVELALNGIYYSLPGNGFNVIFPTVSGSFKAGTMWRQEIVSAGNAVYYSERMLPTLSFSDATEWDADYAVIKNANFLETACNRMSDGEFSGNRRAEVLGEIAYLRALAYFNILVRYCEFWDMNSEYGVVMRNEAPSVSNALKARSSVADSYQYILDQLEIAIEKAPDWKKLSQASKEAAKALKARVLLYAGKYTEAVAAVNDAIDTNSPLPEANYGDVFDKFSTTKEILFARVFDQKDATNTSTRQQCYGNSPTKKQGYWGPTNEYVELVGDDPRADAIFSKVDSLMDSRSSAVAYNLKSVKKLLNDANDMPVIFSRVSELYLIKAEALYRSGASISEAYAPIRKLRERAGAEIILPANNEELETAIFNEWMLELSFENWHEWFAMIRFAGYTEKPDFTRLLALNKTLREALEKEYEKSEAQGDNYYQRIIDRRIDAIPSSEISSNLECKQNPGY
# What was measured:
# Assay in all cases: glycan array binding signal (z-score within array); higher = stronger binding
# Details in all cases: glycan notation: IUPAC condensed, linker removed
# [1] = target: Fuc(a1-2)[Gal(a1-3)]Gal(b1-4)GlcNAc(b1-2)Man(a1-3)[Fuc(a1-2)[Gal(a1-3)]Gal(b1-4)GlcNAc(b1-2)Man(a1-6)]Man(b1-4)GlcNAc(b1-4)[Fuc(a1-6)]GlcNAc
# Procedure, shortened: (§1)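 Glycan array data were curated from 3228 arrays in the Consortium for Functional Glycomics database and kept only where the protein sequence was available. Glycan names were converted to IUPAC-condensed notation, and columns mapping to the same glycan were averaged. The binding signal is a within-array Z-score, averaged across arrays of the same protein sequence at different concentrations or buffers and across linkers. Negative Z-scores can be read as non-binding.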
# [2] = target: Fuc(a1-2)[Gal(a1-3)]Gal(b1-4)GlcNAc(b1-3)GalNAc
# Procedure, shortened: as §1
# [3] = target: Fuc(a1-2)[Gal(a1-3)]Gal(b1-4)GlcNAc(b1-3)[Fuc(a1-2)[Gal(a1-3)]Gal(b1-4)GlcNAc(b1-6)]GalNAc
# Procedure, shortened: as §1
# [4] = target: Fuc(a1-2)[Gal(a1-3)]Gal(b1-4)GlcNAc(b1-6)GalNAc
# Procedure, shortened: as §1
# [5] = target: Fuc(a1-2)[Gal(a1-3)]Gal(b1-4)[Fuc(a1-3)]Glc
# Procedure, shortened: as §1
# [6] = target: Fuc(a1-2)[Gal(a1-3)]Gal(b1-4)[Fuc(a1-3)]GlcNAc
# Procedure, shortened: as §1
# [7] = target: Fuc(a1-2)[Gal(a1-3)]Gal(b1-4)[Fuc(a1-3)]GlcNAc(b1-3)GalNAc
# Procedure, shortened: as §1
# [8] = target: Fuc(a1-2)[Gal(a1-4)]Gal(b1-4)GlcNAc
# Procedure, shortened: as §1
# [9] = target: Fuc(a1-2)[GalNAc(a1-3)]Gal
# Procedure, shortened: as §1
# [10] = target: Fuc(a1-2)[GalNAc(a1-3)]Gal(b1-3)GalNAc(a1-3)[Fuc(a1-2)]Gal(b1-4)GlcNAc
# Procedure, shortened: as §1
# [11] = target: Fuc(a1-2)[GalNAc(a1-3)]Gal(b1-3)GalNAc(b1-3)Gal(a1-4)Gal(b1-4)Glc
# Procedure, shortened: as §1
# [12] = target: Fuc(a1-2)[GalNAc(a1-3)]Gal(b1-3)GlcNAc
# Procedure, shortened: as §1
# [13] = target: Fuc(a1-2)[GalNAc(a1-3)]Gal(b1-3)GlcNAc(b1-2)Man(a1-3)[Fuc(a1-2)[GalNAc(a1-3)]Gal(b1-3)GlcNAc(b1-2)Man(a1-6)]Man(b1-4)GlcNAc(b1-4)GlcNAc
# Procedure, shortened: as §1
# [14] = target: Fuc(a1-2)[GalNAc(a1-3)]Gal(b1-3)GlcNAc(b1-2)Man(a1-3)[Fuc(a1-2)[GalNAc(a1-3)]Gal(b1-3)GlcNAc(b1-2)Man(a1-6)]Man(b1-4)GlcNAc(b1-4)[Fuc(a1-6)]GlcNAc
# Procedure, shortened: as §1
# [15] = target: Fuc(a1-2)[GalNAc(a1-3)]Gal(b1-3)GlcNAc(b1-3)GalNAc
# Procedure, shortened: as §1
# [16] = target: Fuc(a1-2)[GalNAc(a1-3)]Gal(b1-3)GlcNAc(b1-6)GalNAc
# Procedure, shortened: as §1
# [17] = target: Fuc(a1-2)[GalNAc(a1-3)]Gal(b1-4)Glc
# Procedure, shortened: as §1
# [18] = target: Fuc(a1-2)[GalNAc(a1-3)]Gal(b1-4)GlcNAc
# Procedure, shortened: as §1
# [19] = target: Fuc(a1-2)[GalNAc(a1-3)]Gal(b1-4)GlcNAc(b1-2)Man
# Procedure, shortened: as §1
# [20] = target: Fuc(a1-2)[GalNAc(a1-3)]Gal(b1-4)GlcNAc(b1-2)Man(a1-3)[Fuc(a1-2)[GalNAc(a1-3)]Gal(b1-4)GlcNAc(b1-2)Man(a1-6)]Man(b1-4)GlcNAc(b1-4)GlcNAc
# Procedure, shortened: as §1
# [21] = target: Fuc(a1-2)[GalNAc(a1-3)]Gal(b1-4)GlcNAc(b1-2)Man(a1-3)[Fuc(a1-2)[GalNAc(a1-3)]Gal(b1-4)GlcNAc(b1-2)Man(a1-6)]Man(b1-4)GlcNAc(b1-4)[Fuc(a1-6)]GlcNAc
# Procedure, shortened: as §1
# [22] = target: Fuc(a1-2)[GalNAc(a1-3)]Gal(b1-4)GlcNAc(b1-3)Gal(b1-4)GlcNAc
# Procedure, shortened: as §1
# [23] = target: Fuc(a1-2)[GalNAc(a1-3)]Gal(b1-4)GlcNAc(b1-3)Gal(b1-4)GlcNAc(b1-3)Gal(b1-4)GlcNAc
# Procedure, shortened: as §1
# [24] = target: Fuc(a1-2)[GalNAc(a1-3)]Gal(b1-4)GlcNAc(b1-3)GalNAc
# Procedure, shortened: as §1
# [25] = target: Fuc(a1-2)[GalNAc(a1-3)]Gal(b1-4)GlcNAc(b1-3)[Fuc(a1-2)[GalNAc(a1-3)]Gal(b1-4)GlcNAc(b1-6)]GalNAc
# Procedure, shortened: as §1
# [26] = target: Fuc(a1-2)[GalNAc(a1-3)]Gal(b1-4)GlcNAc(b1-6)GalNAc
# Procedure, shortened: as §1
# [27] = target: Fuc(a1-2)[GalNAc(a1-3)]Gal(b1-4)[Fuc(a1-3)]GlcNAc
# Procedure, shortened: as §1
# [28] = target: Fuc(a1-2)[GalNAc(a1-3)]Gal(b1-4)[Fuc(a1-3)]GlcNAc(b1-3)GalNAc
# Procedure, shortened: as §1
# [29] = target: Fuc(a1-2)[GalNAc(a1-4)]Gal(b1-4)GlcNAc
# Procedure, shortened: as §1
# [30] = target: Fuc(a1-2)[GalNAc(b1-3)]Gal
# Procedure, shortened: as §1
# Fuc(a1-3)GlcNAc = target: Fuc(a1-3)GlcNAc
# Procedure, shortened: as §1
# [31] = target: Fuc(a1-3)[Gal(b1-4)]Glc6S
# Procedure, shortened: as §1
# [32] = target: Fuc(a1-3)[Gal(b1-4)]GlcNAc
# Procedure, shortened: as §1
# [33] = target: Fuc(a1-3)[Gal(b1-4)]GlcNAc(b1-2)Man
# Procedure, shortened: as §1
# [34] = target: Fuc(a1-3)[Gal(b1-4)]GlcNAc(b1-2)Man(a1-3)[Fuc(a1-3)[Gal(b1-4)]GlcNAc(b1-2)Man(a1-6)]Man(b1-4)GlcNAc(b1-4)GlcNAc
# Procedure, shortened: as §1
# [35] = target: Fuc(a1-3)[Gal(b1-4)]GlcNAc(b1-2)Man(a1-3)[Fuc(a1-3)[Gal(b1-4)]GlcNAc(b1-2)Man(a1-6)]Man(b1-4)GlcNAc(b1-4)[Fuc(a1-6)]GlcNAc
# Procedure, shortened: as §1
# [36] = target: Fuc(a1-3)[Gal(b1-4)]GlcNAc(b1-3)Gal(b1-3)[Fuc(a1-4)]GlcNAc
# Procedure, shortened: as §1
binder,measurement,setting,value
B1,glycan array binding signal (z-score),[1],0.251
same,glycan array binding signal (z-score),[2],-0.538
same,glycan array binding signal (z-score),[3],-0.18
same,glycan array binding signal (z-score),[4],-0.283
same,glycan array binding signal (z-score),[5],-0.444
same,glycan array binding signal (z-score),[6],-0.298
same,glycan array binding signal (z-score),[7],-0.157
same,glycan array binding signal (z-score),[8],0.379
same,glycan array binding signal (z-score),[9],-0.151
same,glycan array binding signal (z-score),[10],-0.427
same,glycan array binding signal (z-score),[11],-0.135
same,glycan array binding signal (z-score),[12],-0.302
same,glycan array binding signal (z-score),[13],-0.298
same,glycan array binding signal (z-score),[14],-0.342
same,glycan array binding signal (z-score),[15],-0.535
same,glycan array binding signal (z-score),[16],-0.182
same,glycan array binding signal (z-score),[17],-0.356
same,glycan array binding signal (z-score),[18],-0.36
same,glycan array binding signal (z-score),[19],-0.056
same,glycan array binding signal (z-score),[20],-0.375
same,glycan array binding signal (z-score),[21],-0.215
same,glycan array binding signal (z-score),[22],0.044
same,glycan array binding signal (z-score),[23],0.133
same,glycan array binding signal (z-score),[24],-0.285
same,glycan array binding signal (z-score),[25],-0.356
same,glycan array binding signal (z-score),[26],-0.523
same,glycan array binding signal (z-score),[27],-0.318
same,glycan array binding signal (z-score),[28],0.014
same,glycan array binding signal (z-score),[29],0.577
same,glycan array binding signal (z-score),[30],0.193
same,glycan array binding signal (z-score),Fuc(a1-3)GlcNAc,-0.156
same,glycan array binding signal (z-score),[31],-0.036
same,glycan array binding signal (z-score),[32],-0.244
same,glycan array binding signal (z-score),[33],-0.379
same,glycan array binding signal (z-score),[34],-0.307
same,glycan array binding signal (z-score),[35],-0.15
same,glycan array binding signal (z-score),[36],-0.492

# Source: the supplement of paper PMC8728848
